Source: article PMC5851698
No constants are given. Whether binding was seen depends on the method and setting. In cells and extracts the contact can be indirect. Some entries that bind do so weakly or less than the wild type. Blank lines part the entries; values can stand above or below the molecule they belong to.

Protein sequences, listed by entry. Tags and fused reporters are not part of them. Lines headed by an entry give the natural chain unless they say otherwise; changes in a name come on top. Chains listed by the source or under a name are the forms on record and can include a tag or linker. Residues count along the entry.
C-terminally HA-tagged full-length TANGO1 (Q5JRA6, residues 23-1907): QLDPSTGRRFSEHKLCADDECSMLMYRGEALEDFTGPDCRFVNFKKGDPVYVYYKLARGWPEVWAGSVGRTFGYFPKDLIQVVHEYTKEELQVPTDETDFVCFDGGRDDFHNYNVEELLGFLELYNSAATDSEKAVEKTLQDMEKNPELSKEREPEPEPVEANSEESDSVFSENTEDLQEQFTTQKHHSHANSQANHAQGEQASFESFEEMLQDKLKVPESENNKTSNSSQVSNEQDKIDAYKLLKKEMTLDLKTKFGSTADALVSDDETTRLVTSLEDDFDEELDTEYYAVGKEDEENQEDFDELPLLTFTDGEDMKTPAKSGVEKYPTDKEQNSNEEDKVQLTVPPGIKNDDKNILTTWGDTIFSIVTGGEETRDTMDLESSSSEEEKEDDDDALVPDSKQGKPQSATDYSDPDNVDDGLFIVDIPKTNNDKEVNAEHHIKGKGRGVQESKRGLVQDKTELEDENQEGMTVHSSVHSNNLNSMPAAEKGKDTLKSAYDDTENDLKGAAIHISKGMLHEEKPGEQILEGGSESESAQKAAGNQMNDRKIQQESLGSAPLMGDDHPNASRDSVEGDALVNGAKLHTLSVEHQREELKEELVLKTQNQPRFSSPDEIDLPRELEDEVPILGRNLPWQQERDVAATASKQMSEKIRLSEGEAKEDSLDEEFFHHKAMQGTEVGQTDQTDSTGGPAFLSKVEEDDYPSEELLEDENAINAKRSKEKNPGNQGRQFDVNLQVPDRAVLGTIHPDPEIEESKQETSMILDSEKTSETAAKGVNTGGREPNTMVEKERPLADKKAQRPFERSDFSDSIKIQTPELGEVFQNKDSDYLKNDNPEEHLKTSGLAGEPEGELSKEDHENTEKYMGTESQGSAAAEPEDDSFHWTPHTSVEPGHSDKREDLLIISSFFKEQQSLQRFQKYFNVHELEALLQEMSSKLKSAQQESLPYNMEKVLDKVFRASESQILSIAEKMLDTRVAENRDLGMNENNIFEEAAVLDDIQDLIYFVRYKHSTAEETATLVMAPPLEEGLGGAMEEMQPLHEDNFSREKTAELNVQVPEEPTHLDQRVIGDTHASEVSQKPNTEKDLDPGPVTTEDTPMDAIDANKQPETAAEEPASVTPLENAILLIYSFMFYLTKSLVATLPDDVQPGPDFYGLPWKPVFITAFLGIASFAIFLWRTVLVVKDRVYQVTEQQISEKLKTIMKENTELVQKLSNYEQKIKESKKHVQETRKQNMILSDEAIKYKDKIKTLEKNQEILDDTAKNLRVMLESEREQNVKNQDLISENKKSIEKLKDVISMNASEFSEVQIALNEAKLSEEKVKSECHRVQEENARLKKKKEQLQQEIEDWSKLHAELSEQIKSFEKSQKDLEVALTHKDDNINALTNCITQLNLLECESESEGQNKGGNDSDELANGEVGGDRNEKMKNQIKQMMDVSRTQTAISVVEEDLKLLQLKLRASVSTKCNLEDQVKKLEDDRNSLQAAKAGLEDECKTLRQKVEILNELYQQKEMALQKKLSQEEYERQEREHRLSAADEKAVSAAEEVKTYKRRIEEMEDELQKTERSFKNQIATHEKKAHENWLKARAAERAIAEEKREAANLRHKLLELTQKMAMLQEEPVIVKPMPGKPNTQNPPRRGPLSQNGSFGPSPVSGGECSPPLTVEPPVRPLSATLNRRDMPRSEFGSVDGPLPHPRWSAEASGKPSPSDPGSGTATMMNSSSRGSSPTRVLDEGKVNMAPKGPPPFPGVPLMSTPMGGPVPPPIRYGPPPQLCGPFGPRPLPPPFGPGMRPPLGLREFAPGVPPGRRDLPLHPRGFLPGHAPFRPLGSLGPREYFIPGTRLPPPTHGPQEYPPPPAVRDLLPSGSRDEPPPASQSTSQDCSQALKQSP
UniProt A2RRP1: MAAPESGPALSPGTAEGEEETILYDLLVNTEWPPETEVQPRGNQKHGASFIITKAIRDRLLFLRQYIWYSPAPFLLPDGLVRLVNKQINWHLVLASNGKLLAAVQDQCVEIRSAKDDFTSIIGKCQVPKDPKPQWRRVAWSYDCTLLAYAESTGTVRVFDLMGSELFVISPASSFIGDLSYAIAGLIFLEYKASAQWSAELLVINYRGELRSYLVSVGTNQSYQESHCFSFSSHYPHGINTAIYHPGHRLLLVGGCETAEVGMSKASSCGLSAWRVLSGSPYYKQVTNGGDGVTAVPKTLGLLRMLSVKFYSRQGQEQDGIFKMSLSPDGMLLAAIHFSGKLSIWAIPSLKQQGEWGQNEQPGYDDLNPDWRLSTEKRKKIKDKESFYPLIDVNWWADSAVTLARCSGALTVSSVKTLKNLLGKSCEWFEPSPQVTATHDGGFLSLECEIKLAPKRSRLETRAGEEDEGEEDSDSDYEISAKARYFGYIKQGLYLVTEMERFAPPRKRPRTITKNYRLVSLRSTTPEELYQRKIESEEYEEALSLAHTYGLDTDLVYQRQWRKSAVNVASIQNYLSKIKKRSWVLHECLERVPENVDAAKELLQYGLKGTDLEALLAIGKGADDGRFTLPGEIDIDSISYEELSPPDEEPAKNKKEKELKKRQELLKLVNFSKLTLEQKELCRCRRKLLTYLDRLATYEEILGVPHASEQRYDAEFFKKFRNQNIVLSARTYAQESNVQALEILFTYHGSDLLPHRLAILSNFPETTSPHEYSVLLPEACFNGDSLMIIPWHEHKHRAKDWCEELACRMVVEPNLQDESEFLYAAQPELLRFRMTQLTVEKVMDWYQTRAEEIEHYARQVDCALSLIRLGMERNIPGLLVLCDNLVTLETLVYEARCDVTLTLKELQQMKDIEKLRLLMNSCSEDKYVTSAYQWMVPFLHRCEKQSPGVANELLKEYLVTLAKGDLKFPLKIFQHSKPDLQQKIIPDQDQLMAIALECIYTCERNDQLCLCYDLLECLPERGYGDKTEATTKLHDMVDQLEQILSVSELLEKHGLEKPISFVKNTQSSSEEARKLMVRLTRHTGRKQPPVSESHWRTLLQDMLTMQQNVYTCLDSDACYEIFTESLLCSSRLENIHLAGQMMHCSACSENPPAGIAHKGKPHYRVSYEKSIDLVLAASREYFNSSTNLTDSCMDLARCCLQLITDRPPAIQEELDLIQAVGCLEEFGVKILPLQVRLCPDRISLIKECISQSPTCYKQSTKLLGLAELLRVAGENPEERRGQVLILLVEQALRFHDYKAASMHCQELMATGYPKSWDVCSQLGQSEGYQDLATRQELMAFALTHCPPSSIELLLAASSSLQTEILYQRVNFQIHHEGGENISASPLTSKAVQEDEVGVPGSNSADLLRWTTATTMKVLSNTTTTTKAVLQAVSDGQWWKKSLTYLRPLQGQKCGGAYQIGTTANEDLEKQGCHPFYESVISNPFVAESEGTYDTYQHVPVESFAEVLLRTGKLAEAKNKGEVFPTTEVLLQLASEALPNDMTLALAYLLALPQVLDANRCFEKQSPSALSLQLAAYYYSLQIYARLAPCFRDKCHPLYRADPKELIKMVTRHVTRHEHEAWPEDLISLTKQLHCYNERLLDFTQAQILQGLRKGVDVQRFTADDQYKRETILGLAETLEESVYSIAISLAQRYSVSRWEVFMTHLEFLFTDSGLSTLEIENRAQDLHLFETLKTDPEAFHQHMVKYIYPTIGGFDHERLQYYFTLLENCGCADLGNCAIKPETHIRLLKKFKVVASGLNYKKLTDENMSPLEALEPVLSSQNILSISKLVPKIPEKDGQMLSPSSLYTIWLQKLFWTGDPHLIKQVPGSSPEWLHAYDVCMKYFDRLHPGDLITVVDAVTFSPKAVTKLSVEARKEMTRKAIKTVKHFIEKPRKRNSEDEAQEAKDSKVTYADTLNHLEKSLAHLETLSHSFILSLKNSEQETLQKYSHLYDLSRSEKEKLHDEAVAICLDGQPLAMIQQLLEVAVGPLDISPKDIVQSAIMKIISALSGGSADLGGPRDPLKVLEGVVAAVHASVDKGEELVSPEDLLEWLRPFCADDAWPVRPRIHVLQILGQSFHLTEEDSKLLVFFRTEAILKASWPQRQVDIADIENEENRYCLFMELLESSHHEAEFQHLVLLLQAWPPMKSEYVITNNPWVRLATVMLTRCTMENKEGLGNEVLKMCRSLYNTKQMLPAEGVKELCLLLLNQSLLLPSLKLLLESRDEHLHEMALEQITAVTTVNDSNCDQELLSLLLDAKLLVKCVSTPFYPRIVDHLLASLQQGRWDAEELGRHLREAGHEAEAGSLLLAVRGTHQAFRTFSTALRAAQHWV
UniProt Q6NUQ1: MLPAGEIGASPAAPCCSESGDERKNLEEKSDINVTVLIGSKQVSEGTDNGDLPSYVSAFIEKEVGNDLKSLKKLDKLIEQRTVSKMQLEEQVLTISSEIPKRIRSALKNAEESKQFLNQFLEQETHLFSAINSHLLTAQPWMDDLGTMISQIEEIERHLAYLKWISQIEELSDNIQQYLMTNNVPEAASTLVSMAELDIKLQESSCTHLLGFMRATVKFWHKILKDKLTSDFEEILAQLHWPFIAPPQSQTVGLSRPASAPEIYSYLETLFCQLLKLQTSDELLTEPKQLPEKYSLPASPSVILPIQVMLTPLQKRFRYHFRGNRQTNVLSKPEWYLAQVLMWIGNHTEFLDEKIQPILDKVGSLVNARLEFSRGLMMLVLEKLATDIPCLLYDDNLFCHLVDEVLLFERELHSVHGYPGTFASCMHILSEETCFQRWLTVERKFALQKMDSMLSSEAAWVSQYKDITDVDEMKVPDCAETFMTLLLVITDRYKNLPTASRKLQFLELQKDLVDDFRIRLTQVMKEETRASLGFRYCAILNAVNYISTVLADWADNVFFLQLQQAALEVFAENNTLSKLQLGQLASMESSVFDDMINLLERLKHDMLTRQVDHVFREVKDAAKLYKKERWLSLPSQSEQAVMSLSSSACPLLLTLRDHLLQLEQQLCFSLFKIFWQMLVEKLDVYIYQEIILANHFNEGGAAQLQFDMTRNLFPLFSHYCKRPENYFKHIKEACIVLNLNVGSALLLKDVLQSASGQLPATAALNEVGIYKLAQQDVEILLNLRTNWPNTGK

Tests used:
[1] = target: C-terminally HA-tagged full-length TANGO1 (human) (UniProt Q5JRA6); experiment: co-IP; HA-tagged TANGO1 constructs transfected in HEK293T cells and immunoprecipitated; samples probed for NBAS, RINT1, cTAGE5 and ZW10; lysis in 50 mM Tris-HCl pH 7.4, 150 mM NaCl, 1 mM EDTA, 2% CHAPS; washes TBS/0.5% CHAPS
TANGO1Δ1255–1295 (human) [2] = target: TANGO1Δ1255–1295 (human) (UniProt Q5JRA6); experiment: as above
TANGO1Δ1296–1336 (human) [3] = target: TANGO1Δ1296–1336 (human) (UniProt Q5JRA6); experiment: as above
[4] = target: C-terminally HA-tagged full-length TANGO1 (human) (UniProt Q5JRA6); experiment: co-IP; HEK293T cells with TANGO1-FLAG and the indicated HA-tagged TANGO1 construct; lysates and immunoprecipitated samples probed for HA, FLAG and cTAGE5; lysis in 50 mM Tris-HCl pH 7.4, 150 mM NaCl, 1 mM EDTA, 2% CHAPS; washes TBS/0.5% CHAPS
TANGO1Δ1255–1295 (human) [5] = target: TANGO1Δ1255–1295 (human) (UniProt Q5JRA6); experiment: as above
TANGO1Δ1296–1336 (human) [6] = target: TANGO1Δ1296–1336 (human) (UniProt Q5JRA6); experiment: as above

- binding [1]: binds
- binding (TANGO1Δ1255–1295 (human) [2]): no binding
- binding (TANGO1Δ1296–1336 (human) [3]): binds
Molecule: NBAS (from UniProt A2RRP1 1-2371)

- binding [1]: binds
- binding (TANGO1Δ1255–1295 (human) [2]): no binding
- binding (TANGO1Δ1296–1336 (human) [3]): binds
Molecule: RINT1 (from UniProt Q6NUQ1 1-792)

- binding [4]: binds
- binding (TANGO1Δ1255–1295 (human) [5]): no binding
- binding (TANGO1Δ1296–1336 (human) [6]): binds
Molecule: TANGO1-FLAG (from UniProt Q5JRA6 23-1907)

- binding [1]: binds
- binding (TANGO1Δ1255–1295 (human) [2]): no binding
- binding (TANGO1Δ1296–1336 (human) [3]): binds
B1: ZW10 (protein, UniProt O43264 1-779)
chain: MASFVTEVLAHSGRLEKEDLGTRISRLTRRVEEIKGEVCNMISKKYSEFLPSMQSAQGLITQVDKLSEDIDLLKSRIESEVRRDLHVSTGEFTDLKQQLERDSVVLSLLKQLQEFSTAIEEYNCALTEKKYVTGAQRLEEAQKCLKLLKSRKCFDLKILKSLSMELTIQKQNILYHLGEEWQKLIVWKFPPSKDTSSLESYLQTELHLYTEQSHKEEKTPMPPISSVLLAFSVLGELHSKLKSFGQMLLKYILRPLASCPSLHAVIESQPNIVIIRFESIMTNLEYPSPSEVFTKIRLVLEVLQKQLLDLPLDTDLENEKTSTVPLAEMLGDMIWEDLSECLIKNCLVYSIPTNSSKLQQYEEIIQSTEEFENALKEMRFLKGDTTDLLKYARNINSHFANKKCQDVIVAARNLMTSEIHNTVKIIPDSKINVPELPTPDEDNKLEVQKVSNTQYHEVMNLEPENTLDQHSFSLPTCRISESVKKLMELAYQTLLEATTSSDQCAVQLFYSVRNIFHLFHDVVPTYHKENLQKLPQLAAIHHNNCMYIAHHLLTLGHQFRLRLAPILCDGTATFVDLVPGFRRLGTECFLAQMRAQKGELLERLSSARNFSNMDDEENYSAASKAVRQVLHQLKRLGIVWQDVLPVNIYCKAMGTLLNTAISEVIGKITALEDISTEDGDRLYSLCKTVMDEGPQVFAPLSEESKNKKYQEEVPVYVPKWMPFKELMMMLQASLQEIGDRWADGKGPLAAAFSSSEVKALIRALFQNTERRAAALAKIK
